# Data as given in paper PMC11964917 (Nature Microbiology, 2025).
# Tested on: B/Laos/0080/2016 (Victoria)
# Design: species or system BALB/c mice
# Conditions: mouse, in vivo
compound,measurement,value
"CC(=O)N[C@H]1[C@H]([C@H](O)[C@H](O)CO)OC(C(=O)O)=C[C@@H]1N=C(N)N [ZAN, zanamivir]",minimal protective dose,1 mg/kg
